# Experimental data as given in paper PMC4336329 (PLoS ONE, 2015).
# Among all 310,000 compounds or so, about 14,000 (4.5%) showed an effect of 50% or more. Effects have a minus sign here. This is one part of the list.
# Molecular target: human ether-à-go-go-related gene (hERG) potassium channel (human, UniProt Q12809)
# Assay: primary screen, population patch clamp on CHO cells stably expressing hERG
# Description: Briefly, Chinese hamster ovary (CHO) cells stably expressing the hERG channel were dislodged from tissue culture flasks and dispensed into PPC plates. […] During the recording, background leak currents were estimated by a 100 ms step to -80 mV from an initial holding potential of -70 mV and subtracted from the subsequent current measurement. The campaign was conducted in two phases using slight differences in recording protocol. In the first phase, the initial voltage pulse used a 100 ms step to -30 mV from a holding potential of -70 mV, a 2 s conditioning step to +25 mV, and a 2 s test step to -30 mV. During the second phase of the screen, the potential during the conditioning step was raised to +45 mV. In both phases of the campaign, a secondary voltage pulse was applied using the same parameters as the second phase initial pulse. The initial and secondary pulses were applied in the absence of compound, and upon application of 1 μM and 10 μM test concentrations. […]
# 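Note: peak tail current of the secondary pulse compared with the same well before compound.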
# human ether-à-go-go-related gene (hERG) potassium channel, sequence (Q12809 whole entry, looked up): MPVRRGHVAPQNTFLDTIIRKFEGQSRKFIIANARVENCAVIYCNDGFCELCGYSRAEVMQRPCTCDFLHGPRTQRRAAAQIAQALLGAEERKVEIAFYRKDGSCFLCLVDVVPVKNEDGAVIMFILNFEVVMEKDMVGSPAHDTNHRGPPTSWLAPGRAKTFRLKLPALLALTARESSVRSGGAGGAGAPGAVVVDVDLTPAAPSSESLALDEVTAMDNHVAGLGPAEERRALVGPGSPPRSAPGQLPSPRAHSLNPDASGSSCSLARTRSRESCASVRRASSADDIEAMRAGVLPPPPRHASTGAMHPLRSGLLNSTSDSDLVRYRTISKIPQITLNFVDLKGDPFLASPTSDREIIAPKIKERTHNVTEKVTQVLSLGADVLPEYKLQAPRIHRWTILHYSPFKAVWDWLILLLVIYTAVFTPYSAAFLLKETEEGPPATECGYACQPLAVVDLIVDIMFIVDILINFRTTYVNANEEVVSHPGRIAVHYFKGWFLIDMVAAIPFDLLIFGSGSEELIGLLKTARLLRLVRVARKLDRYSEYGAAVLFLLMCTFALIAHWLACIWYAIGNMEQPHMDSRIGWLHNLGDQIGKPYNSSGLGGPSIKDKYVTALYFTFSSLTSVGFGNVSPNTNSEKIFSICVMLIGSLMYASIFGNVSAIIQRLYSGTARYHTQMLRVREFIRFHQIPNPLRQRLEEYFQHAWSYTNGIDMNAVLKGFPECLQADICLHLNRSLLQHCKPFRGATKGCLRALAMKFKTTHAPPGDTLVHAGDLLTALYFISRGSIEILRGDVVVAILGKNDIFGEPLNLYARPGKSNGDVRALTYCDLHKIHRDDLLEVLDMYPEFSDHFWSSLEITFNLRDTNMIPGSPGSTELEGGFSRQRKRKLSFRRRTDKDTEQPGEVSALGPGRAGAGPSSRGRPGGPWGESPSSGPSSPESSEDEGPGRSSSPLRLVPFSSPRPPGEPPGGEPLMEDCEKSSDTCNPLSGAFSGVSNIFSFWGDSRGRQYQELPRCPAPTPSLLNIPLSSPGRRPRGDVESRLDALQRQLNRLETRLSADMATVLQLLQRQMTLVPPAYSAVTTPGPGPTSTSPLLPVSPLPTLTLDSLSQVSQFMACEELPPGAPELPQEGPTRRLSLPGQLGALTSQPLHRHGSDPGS
row,SMILES,"hERG current change (%, negative = inhibition) at 10uM"
1,Cc1ccc(C)c(NC(=O)c2cc(S(=O)(=O)N3CCCCC3)ccc2N2CCOCC2)c1,-62.7%
2,O=C(NCC(c1ccc(F)cc1)N1CCOCC1)c1ccc(C(=O)c2ccccc2)cc1 (stereo not drawn),-31.9%
3,Cc1[nH]c2ccccc2c1C(=O)CN1CCC(C)CC1,-6.58%
4,Cc1cccc(C2=N/C(=C\c3cccnc3)C(=O)O2)c1,12.2%
5,CCCC[N+]12CCC(CC1)C(Cc1ccccc1)C2.[Br-] (stereo not drawn),21.9%
6,O=C(NC1CCN(S(=O)(=O)c2ccccc2)CC1)c1cccc(F)c1,15%
7,N#CCSCC(=O)Nc1ccc(F)cc1,2.54%
8,CC1CCN(CCNC(=O)CCS(=O)(=O)c2ccc(Br)cc2)CC1,-16.6%
9,O=C1c2cccc3cc([N+](=O)[O-])cc(c23)C(=O)N1c1nncs1,2.83%
10,c1ccc(CN2CCN(CCCNc3ccc4nnc(-c5ccccc5)n4n3)CC2)cc1,-59.7%
11,Cc1cc[n+](CC(=O)c2ccc(NC(=O)c3ccccc3)cc2)cc1.[Br-],2.6%
12,CCOC(=O)/C(C#N)=C\c1cc(C)n(-c2ccccc2)c1C,7.17%
13,CN(C)CCCN(C(=O)c1ccc(C(=O)c2ccccc2)cc1)c1nc2cc3c(cc2s1)OCO3.Cl,-56.3%
14,O=c1c2ccccc2oc2nc(-c3ccco3)n(-c3ccccc3)c(=O)c12,1.76%
15,Cc1ccc(C(=O)N/C(=C\c2ccco2)C(=O)NCCN2CCOCC2)cc1C,-3.01%
16,CC(C)CCn1nnnc1C(c1ccc(F)cc1)N1CCN(C(=O)c2ccco2)CC1 (stereo not drawn),-38.1%
17,O=C(Nc1cc(Cl)c(O)c(Cl)c1)C1CCCO1 (stereo not drawn),12%
18,Cc1ccc(SCC(=O)NCc2ccco2)cc1,3.39%
19,CN(C)NC(=O)C(NC(=O)c1ccccc1)C12CC3CC(CC(C3)C1)C2.Cl (stereo not drawn),12.4%
20,O=C(NC1CC1)C1=C[C@@H](C2CCCCC2)C[C@@H](OCCCCO)O1,6.7%
21,COc1ccc(N(CC(=O)NC2CCCCC2)C(=O)CNC(=O)c2ccco2)cc1,-2.3%
22,CCOC(CNC(=O)c1nnc(Cc2cc(OC)c(OC)c(OC)c2)o1)OCC,-5.87%
23,Cc1cc(C)cc(NC(=S)NC(=O)CCN2C(=O)c3ccccc3C2=O)c1,5.26%

row,SMILES,"hERG current change (%, negative = inhibition) at 10uM"
1,N#CCS(=O)(=O)c1ccccc1,18.7%
2,O=C(NCc1cn2ccccc2n1)c1ccc(Br)o1,-9.75%
3,C=CCn1c(SCC(=O)NCC2CCCO2)nnc1C1CCCCC1 (stereo not drawn),4.97%
4,C=CCN1CC[C@@]2(C)c3cc(O)ccc3CC1[C@@H]2C.Cl,-11.2%
5,Cc1ccccc1NC(=O)NCCc1c[nH]c2ccccc12,3.2%
6,O=C(CCN1CCCCC1)NCNC(=O)CCN1CCCCC1,8.62%
7,CCOC(=O)c1c(C)nc2sc(C(=O)Nc3ccccc3)c(N)c2c1-c1ccc(OC)cc1,4.13%
8,CCOc1cc(N2CCOCC2)c(OCC)cc1NC(=O)CN1C(=O)NC2(CCc3ccccc32)C1=O (stereo not drawn),-44.5%
9,CCOc1ccc2nc(SCC#N)c(C#N)cc2c1,8.42%
10,CC(=O)c1c(C)[nH]c(C(=O)NCc2cccs2)c1C,-0.906%
11,CC1CCN(S(=O)(=O)CCNC(=O)c2ccc3c(c2)OCO3)CC1,-13.3%
12,COc1ccc(CCNC(=O)Cn2cccc2C(=O)c2ccccc2)c(OC)c1,15%
13,C=CCn1c(COc2ccc(F)cc2)nnc1SCC(=O)NC1CC1,-8.99%
14,O=C(N/N=C/c1ccccn1)c1cccc(S(=O)(=O)N2CCCC2)c1,-18%
15,O=C(O)CSCCCC(=O)Nc1ccc(Br)cc1,2.38%
16,O=[N+]([O-])c1c2ccccc2cc2ccccc12,13.3%
17,O=C(N/N=C/C=C\c1ccccc1)c1cnccn1,-7.49%
18,Cl.O=C(COc1ccc(Br)cc1)OCCN1CCCCC1,11.8%
19,Fc1ccccc1C1c2[nH]c3ccccc3c2CCN1CCCn1cccn1 (stereo not drawn),-46.4%
20,CC(=O)c1sc(NC(=O)c2ccccc2)nc1-c1ccccc1,-7.59%
21,CCOc1c2ccc(C(=O)N[C@H](C)C3CCCCC3)cc2nn1CCOC,-18.2%
22,COc1cc(OC)c(S(=O)(=O)NCc2cccnc2)cc1NC(C)=O,6.65%
23,O=C(Nc1ccccc1N1CCOCC1)C1CCN(S(=O)(=O)c2cccc(C(F)(F)F)c2)CC1,-8.46%

row,SMILES,"hERG current change (%, negative = inhibition) at 10uM"
1,O=c1[nH]c(-c2ccc(F)cc2)nc2c1sc(=S)n2-c1ccccc1,-3.58%
2,CC(=O)c1ccc(N2CCN(C(=S)Nc3cccc(Cl)c3)CC2)cc1,-6.99%
3,O=C(NCc1cccnc1)c1ccc(NC(=O)c2ccc(Br)cc2)cc1,20.7%
4,COc1ccc(NC(=O)Oc2ccccc2)cc1Cl,10.5%
5,CCOc1ccc(S(=O)(=O)NC2CC2)cc1C(N)=O,0.752%
6,Clc1ccc(NC2(c3nnnn3C3CCCCC3)CCCCC2)cc1,10.8%
7,COc1ccccc1N1C(=O)CC(N2CCc3ccccc32)C1=O (stereo not drawn),15.8%
8,O=S(=O)(c1ccccc1F)N1CCN(c2nc3ccccc3s2)CC1,12.1%
9,O=C(C(=O)N1CCOCC1)c1c[nH]c2ccccc12,18.3%
10,NNC(=O)Cn1nc(Cc2ccccc2)n(N)c1=O,8.22%
11,CCOC(=O)C(CCCP(=O)(c1ccccc1)c1ccccc1)(NC(C)=O)C(=O)OCC,19.9%
12,Nc1nnc(COc2ccc(Br)cc2Br)s1,-9.38%
13,CCC(C)Sc1ccc([C@H]2N[C@@](C)(C(=O)OC)[C@H]3C(=O)N(C)C(=O)[C@@H]23)cc1OC.O=C(O)C(F)(F)F (stereo partly drawn),-11.1%
14,O=C(NC1CCCCC1)c1ccc2c(c1)OCCO2,6.19%
15,COc1cccc(Nc2nc(C)nc3c2oc2ccccc23)c1,9.25%
16,C=CCc1ccc(OCCCNC2CCCC2)c(OC)c1,-48.1%
17,Cc1cccc(OCC(=O)Nc2ccc(N3CCN(C(=O)c4ccco4)CC3)cc2)c1C,-1.9%
18,O/N=C(\c1ccc(Cl)cc1Cl)c1ncc(C(F)(F)F)cc1Cl,-18.8%
19,Cc1occc1C(=O)Nc1cccc(C(=O)O)c1,3.33%
20,NS(=O)(=O)c1ccc(NNC(=O)c2ccccc2C(=O)O)cc1,21.1%
21,Cc1ccc(C2C3=C(CCCC3=O)Nc3[nH]c(=S)[nH]c(=O)c32)cc1 (stereo not drawn),12.4%
22,CC1CCCN(C(=O)c2ccc3c(c2)OCO3)C1 (stereo not drawn),3.08%
23,CC(NC(=O)c1nn(C)c2c1CS(=O)(=O)c1ccccc1-2)c1ccccc1 (stereo not drawn),-13.1%

row,SMILES,"hERG current change (%, negative = inhibition) at 10uM"
1,CC(C)NC(=O)C1CC(=O)N(C(C)c2ccccc2)C1 (stereo not drawn),9.9%
2,Cc1cc(C)nc(NC(=O)c2cccc(Cl)c2)n1,-13.9%
3,Cn1c(O)c(C2=NNC(c3ccc(Cl)cc3)C2)c(=O)n(C)c1=O (stereo not drawn),2.21%
4,COc1ccc(OC)c(NC(=O)COc2ccc(S(=O)(=O)N3CCCC3)cc2)c1,-23.4%
5,CC(=Nc1ccccc1N)c1c(O)n(C)c(=O)[nH]c1=O,21.4%
6,O=C1CN(C(=O)c2cc([N+](=O)[O-])ccc2Cl)C(c2ccc(F)cc2)c2cc(F)ccc2N1 (stereo not drawn),-16.8%
7,O=C(Nc1c(-c2ccccc2)nc2sccn12)c1ccccc1,-0.966%
8,CCOC(=O)Cc1csc(NC(=O)c2ccc(NC(C)=O)cc2)n1,7.36%
9,O=C(c1nnc(-c2ccccc2)o1)C1CC1,35.4%
10,Cc1cc(-n2c(C)cc(C(=O)COc3ccc4ccc(=O)oc4c3)c2C)no1,16.2%
11,Cc1cc(C)c2c(N)c(C(=O)NN3CC(=O)N(c4ccccc4F)CC3=O)sc2n1,-10.8%
12,Cc1ccc(CN2CCN(Cc3cnc(N(C)C)s3)CC2CCO)o1 (stereo not drawn),6.05%
13,CC(C)(C)c1ccc(C(=O)CSc2n[nH]c(=O)[nH]c2=O)cc1,-1.43%
14,COCCNC(=S)Nc1cc2oc3ccccc3c2cc1OC,6.49%
15,CCC(=O)N1CCc2cc(S(=O)(=O)NC(C(=O)NC(C)c3ccccc3)C(C)C)ccc21 (stereo not drawn),8.52%
16,COc1ccc(S(=O)(=O)N2CCN(Cc3cccc(F)c3)CC2)cc1,-3.34%
17,COc1cccc(CNC(=O)C2Cc3cc(S(=O)(=O)N4CCCC4)ccc3N2C(C)=O)c1OC (stereo not drawn),-2.93%
18,Nc1ccc(-c2nc3c(Cl)c(N)ccc3[nH]2)cc1,8.74%
19,Cn1c(=O)[nH]c(=O)c2c1nc(N(CCO)Cc1ccccc1)n2CCCc1ccccc1,-64.6%
20,O=C(NCCCO)C(=O)Nc1ccc2c(c1)N(S(=O)(=O)c1cccs1)CCC2,-11.5%
21,CCCCOC(=O)Nc1sc2nc(C)cc(C)c2c1-n1cccc1,11.5%
